Source: PMC10133230
Positions count from the first letter of the chain named. No constants are given. Whether binding was seen depends on the method and setting. For some assays here: Binding seen in cells or lysates may run through a third protein. Some entries that bind do so weakly or less than the wild type. For some assays here: Tags and fused reporters may be left off the sequences shown. One block for each substance: values may come before it.

By UniProt entry, the sequences of proteins in these tests, tags left out. Where a name states a change or a piece, a line headed by the entry shows the natural chain unless it says otherwise.
UniProt Q39057: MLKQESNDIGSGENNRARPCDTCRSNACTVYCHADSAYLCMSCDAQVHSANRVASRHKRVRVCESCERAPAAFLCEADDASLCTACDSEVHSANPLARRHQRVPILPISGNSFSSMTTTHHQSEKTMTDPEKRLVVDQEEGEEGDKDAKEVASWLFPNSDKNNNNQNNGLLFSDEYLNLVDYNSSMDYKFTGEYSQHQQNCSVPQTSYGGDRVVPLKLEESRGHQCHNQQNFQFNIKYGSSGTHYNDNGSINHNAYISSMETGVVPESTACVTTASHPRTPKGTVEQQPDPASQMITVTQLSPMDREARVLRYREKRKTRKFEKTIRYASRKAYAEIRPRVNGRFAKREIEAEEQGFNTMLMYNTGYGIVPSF

Legend:
[1] = molecular target: T1, HLS1 fused to cYFP (BiFC assay) (Arabidopsis thaliana) (UniProt Q42381); assay: split reporter; BiFC: CO dNt with nYFP and HLS1 or HLS1^E346K with cYFP, co-expressed in N. benthamiana leaves for 2 days, YFP by confocal microscopy
T1 sequence: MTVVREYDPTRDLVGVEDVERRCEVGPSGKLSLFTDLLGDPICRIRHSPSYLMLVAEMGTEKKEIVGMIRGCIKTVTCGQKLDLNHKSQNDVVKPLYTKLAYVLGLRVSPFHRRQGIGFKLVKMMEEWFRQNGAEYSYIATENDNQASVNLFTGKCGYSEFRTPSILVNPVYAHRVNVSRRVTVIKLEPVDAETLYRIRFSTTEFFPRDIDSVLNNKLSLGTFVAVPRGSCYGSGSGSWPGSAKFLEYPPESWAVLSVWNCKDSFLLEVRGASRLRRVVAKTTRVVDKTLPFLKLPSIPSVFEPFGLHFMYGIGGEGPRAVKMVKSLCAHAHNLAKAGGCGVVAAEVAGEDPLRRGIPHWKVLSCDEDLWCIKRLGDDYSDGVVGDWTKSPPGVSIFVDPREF

[2] = molecular target: T2, HLS1^E346K, the hls1-1 mutated form of HLS1, fused to cYFP (BiFC assay) (Arabidopsis thaliana) (UniProt Q42381); assay: as above
T2 sequence: T1 sequence with E346K

[3] = molecular target: T3, HOOKLESS1 (HLS1), yeast two-hybrid bait (Arabidopsis thaliana) (UniProt Q42381); assay: two-hybrid; Matchmaker Gold system, yeast strain AH109, HLS1 as bait and CO forms as prey; growth on SD (-Leu/-His/-Ade/-Trp) at 28 °C for 4-7 days
T3 sequence: T1 sequence

[4] = molecular target: T4, HLS1 fused to cLUC (LCI assay) (Arabidopsis thaliana) (UniProt Q42381); assay: split reporter; firefly luciferase complementation imaging (LCI): HLS1 in pCAMBIA1300-cLUC and CO in pCAMBIA1300-nLUC, agroinfiltrated N. benthamiana leaves, LUC activity by CCD camera
T4 sequence: T1 sequence

binding [1]: binds | binding [2]: no binding
Substance: CO dNt fused to nYFP (BiFC assay) (from UniProt Q39057 133-373) (domain or fragment)

binding [3]: binds
Substance: CONSTANS (CO), yeast two-hybrid prey (from UniProt Q39057 1-373)

binding [4]: binds
Substance: CO fused to nLUC (LCI assay) (from UniProt Q39057 1-373)

binding [3]: binds
Substance: CO dNt (carboxyl end of CO, amino acids 133-374), yeast two-hybrid prey (from UniProt Q39057 133-373) (domain or fragment)
